The list shows a part of the results. Cut-off read from the data, not from the text of the source: active = 3.2 or more and inactive = the rest. The signal is at background level for most entries.
The binders below were run against SHP2 C-SH2 domain E139D (assay: enrichment score (SH2-bound / input frequency) (ratio); bacterial display of known human phosphotyrosine sites (pTyr-Var adds point mutants) read by sequencing; higher = stronger binding; tyrosines were phosphorylated by kinases first). Details: peptide library: pTyr-Var.
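Note: displayed peptides selected on beads carrying the immobilized SH2 domain, with library peptides lacking any tyrosine serving as negative controls.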

Enrichment score, inactive:
EFSNQYKATIG [RAB7A_Y37_K32E] 0.929, AGQEGYDRLRP [RAC1_Y64_D63G] 0.556, HRAVEYLLTGI [RAD23A_Y197] 1.41, KDIENHIQDGK [RAD50_Y964_Y964H] 0.389, SSQHRYSTPHT [RAF1_Y232_A237T] 0.754, QRDSSYYWEIE [RAF1_Y340] 0.942, AEMKRYSESSS [RAI14_Y869_A870S] 0.631, SKDQIYPMKLK [RANBP17_Y823] 0.749, TYEPNYGTVKQ [RAPGEF6_Y1447] 0.552, TFEPNYGTVKR [RAPGEF6_Y1447_Q1452R_YF] 0.682, TFEPNYGTVKQ [RAPGEF6_Y1447_YF] 0.396, SHISGYATLRR [RAPH1_Y1226] 0.231, SHISGYAALRR [RAPH1_Y1226_T1228A] 0.244, RQQEDYLLYKQ [RARRES1_Y159] 1.13, RQQEDYLLFKQ [RARRES1_Y159_YF] 0.936, RGESFYQDRMN [RARS_Y338] 0.727, NRLNDYIFSFD [RARS1_Y516] 1.28, NQLNDYIFSFD [RARS1_Y516_R512Q] 1.01, KSIDEYLKLVG [RASAL2_Y381_E379D] 1.02

What follows are binders tested against SHP2 C-SH2 domain wild-type in the same assay as above. Details: peptide library: pTyr-Var.

Enrichment score, inactive:
EFSNQYKATIG [RAB7A_Y37_K32E] 0.808, AGQEGYDRLRP [RAC1_Y64_D63G] 0.502, HRAVEYLLTGI [RAD23A_Y197] 1.06, KDIENHIQDGK [RAD50_Y964_Y964H] 0.425, SSQHRYSTPHT [RAF1_Y232_A237T] 0.681, QRDSSYYWEIE [RAF1_Y340] 1.01, AEMKRYSESSS [RAI14_Y869_A870S] 0.59, SKDQIYPMKLK [RANBP17_Y823] 0.633, TYEPNYGTVKQ [RAPGEF6_Y1447] 0.632, TFEPNYGTVKR [RAPGEF6_Y1447_Q1452R_YF] 0.706, TFEPNYGTVKQ [RAPGEF6_Y1447_YF] 0.626, SHISGYATLRR [RAPH1_Y1226] 0.353, SHISGYAALRR [RAPH1_Y1226_T1228A] 0.285, RQQEDYLLYKQ [RARRES1_Y159] 1.11, RQQEDYLLFKQ [RARRES1_Y159_YF] 0.774, RGESFYQDRMN [RARS_Y338] 1.08, NRLNDYIFSFD [RARS1_Y516] 1.23, NQLNDYIFSFD [RARS1_Y516_R512Q] 0.814, KSIDEYLKLVG [RASAL2_Y381_E379D] 1.01

The binders below were run against SHP2 N-SH2 domain L43F in the same assay as above. Details: peptide library: pTyr-Var.

Enrichment score, inactive:
EFSNQYKATIG [RAB7A_Y37_K32E] 0.608, AGQEGYDRLRP [RAC1_Y64_D63G] 0.697, HRAVEYLLTGI [RAD23A_Y197] 1.07, KDIENHIQDGK [RAD50_Y964_Y964H] 0.628, SSQHRYSTPHT [RAF1_Y232_A237T] 0.66, QRDSSYYWEIE [RAF1_Y340] 0.991, AEMKRYSESSS [RAI14_Y869_A870S] 0.723, SKDQIYPMKLK [RANBP17_Y823] 0.683, TYEPNYGTVKQ [RAPGEF6_Y1447] 0.565, TFEPNYGTVKR [RAPGEF6_Y1447_Q1452R_YF] 0.598, TFEPNYGTVKQ [RAPGEF6_Y1447_YF] 0.531, SHISGYATLRR [RAPH1_Y1226] 0.24, SHISGYAALRR [RAPH1_Y1226_T1228A] 0.237, RQQEDYLLYKQ [RARRES1_Y159] 1, RQQEDYLLFKQ [RARRES1_Y159_YF] 0.884, RGESFYQDRMN [RARS_Y338] 0.813, NRLNDYIFSFD [RARS1_Y516] 1.18, NQLNDYIFSFD [RARS1_Y516_R512Q] 0.931, KSIDEYLKLVG [RASAL2_Y381_E379D] 0.779

These binders were tested against SHP2 N-SH2 domain T42A in the same assay as above. Details: peptide library: pTyr-Var.

Enrichment score, inactive:
EFSNQYKATIG [RAB7A_Y37_K32E] 0.542, AGQEGYDRLRP [RAC1_Y64_D63G] 0.471, HRAVEYLLTGI [RAD23A_Y197] 2.52, KDIENHIQDGK [RAD50_Y964_Y964H] 0.434, SSQHRYSTPHT [RAF1_Y232_A237T] 0.607, QRDSSYYWEIE [RAF1_Y340] 1.09, AEMKRYSESSS [RAI14_Y869_A870S] 0.605, SKDQIYPMKLK [RANBP17_Y823] 0.744, TYEPNYGTVKQ [RAPGEF6_Y1447] 0.594, TFEPNYGTVKR [RAPGEF6_Y1447_Q1452R_YF] 0.485, TFEPNYGTVKQ [RAPGEF6_Y1447_YF] 0.564, SHISGYATLRR [RAPH1_Y1226] 0.21, SHISGYAALRR [RAPH1_Y1226_T1228A] 0.273, RQQEDYLLYKQ [RARRES1_Y159] 0.874, RQQEDYLLFKQ [RARRES1_Y159_YF] 0.544, RGESFYQDRMN [RARS_Y338] 0.78, NRLNDYIFSFD [RARS1_Y516] 1.51, NQLNDYIFSFD [RARS1_Y516_R512Q] 0.995, KSIDEYLKLVG [RASAL2_Y381_E379D] 0.782

These binders were tested against SHP2 N-SH2 domain T52S in the same assay as above. Details: peptide library: pTyr-Var.

Enrichment score, inactive:
EFSNQYKATIG [RAB7A_Y37_K32E] 0.713, AGQEGYDRLRP [RAC1_Y64_D63G] 0.51, HRAVEYLLTGI [RAD23A_Y197] 1.23, KDIENHIQDGK [RAD50_Y964_Y964H] 0.401, SSQHRYSTPHT [RAF1_Y232_A237T] 0.639, QRDSSYYWEIE [RAF1_Y340] 1.11, AEMKRYSESSS [RAI14_Y869_A870S] 0.471, SKDQIYPMKLK [RANBP17_Y823] 0.687, TYEPNYGTVKQ [RAPGEF6_Y1447] 0.531, TFEPNYGTVKR [RAPGEF6_Y1447_Q1452R_YF] 0.613, TFEPNYGTVKQ [RAPGEF6_Y1447_YF] 0.589, SHISGYATLRR [RAPH1_Y1226] 0.249, SHISGYAALRR [RAPH1_Y1226_T1228A] 0.252, RQQEDYLLYKQ [RARRES1_Y159] 0.746, RQQEDYLLFKQ [RARRES1_Y159_YF] 0.693, RGESFYQDRMN [RARS_Y338] 0.516, NRLNDYIFSFD [RARS1_Y516] 1.16, NQLNDYIFSFD [RARS1_Y516_R512Q] 1.01, KSIDEYLKLVG [RASAL2_Y381_E379D] 1.02

The binders below were run against SHP2 N-SH2 domain wild-type in the same assay as above. Details: peptide library: pTyr-Var.

Enrichment score, inactive:
EFSNQYKATIG [RAB7A_Y37_K32E] 0.811, AGQEGYDRLRP [RAC1_Y64_D63G] 0.666, HRAVEYLLTGI [RAD23A_Y197] 0.863, KDIENHIQDGK [RAD50_Y964_Y964H] 0.455, SSQHRYSTPHT [RAF1_Y232_A237T] 0.904, QRDSSYYWEIE [RAF1_Y340] 1.35, AEMKRYSESSS [RAI14_Y869_A870S] 0.644, SKDQIYPMKLK [RANBP17_Y823] 0.796, TYEPNYGTVKQ [RAPGEF6_Y1447] 0.649, TFEPNYGTVKR [RAPGEF6_Y1447_Q1452R_YF] 0.709, TFEPNYGTVKQ [RAPGEF6_Y1447_YF] 0.567, SHISGYATLRR [RAPH1_Y1226] 0.246, SHISGYAALRR [RAPH1_Y1226_T1228A] 0.211, RQQEDYLLYKQ [RARRES1_Y159] 1.14, RQQEDYLLFKQ [RARRES1_Y159_YF] 1.01, RGESFYQDRMN [RARS_Y338] 0.979, NRLNDYIFSFD [RARS1_Y516] 1.31, NQLNDYIFSFD [RARS1_Y516_R512Q] 0.992, KSIDEYLKLVG [RASAL2_Y381_E379D] 0.62

Reference: the supplement of paper PMC10369915
